According to paper PMC4336329 (PLoS ONE, 2015):
The whole screen tested about 310,000 compounds, of which about 14,000 (4.5%) showed an effect of 50% or more. Effects have a minus sign here. The list shows a part of the results.

Target: human ether-à-go-go-related gene (hERG) potassium channel (human, UniProt Q12809)
Experiment: primary screen, population patch clamp on CHO cells stably expressing hERG
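Further: peak tail current of the secondary pulse compared with the same well before compound.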

human ether-à-go-go-related gene (hERG) potassium channel, sequence (Q12809 whole entry, looked up): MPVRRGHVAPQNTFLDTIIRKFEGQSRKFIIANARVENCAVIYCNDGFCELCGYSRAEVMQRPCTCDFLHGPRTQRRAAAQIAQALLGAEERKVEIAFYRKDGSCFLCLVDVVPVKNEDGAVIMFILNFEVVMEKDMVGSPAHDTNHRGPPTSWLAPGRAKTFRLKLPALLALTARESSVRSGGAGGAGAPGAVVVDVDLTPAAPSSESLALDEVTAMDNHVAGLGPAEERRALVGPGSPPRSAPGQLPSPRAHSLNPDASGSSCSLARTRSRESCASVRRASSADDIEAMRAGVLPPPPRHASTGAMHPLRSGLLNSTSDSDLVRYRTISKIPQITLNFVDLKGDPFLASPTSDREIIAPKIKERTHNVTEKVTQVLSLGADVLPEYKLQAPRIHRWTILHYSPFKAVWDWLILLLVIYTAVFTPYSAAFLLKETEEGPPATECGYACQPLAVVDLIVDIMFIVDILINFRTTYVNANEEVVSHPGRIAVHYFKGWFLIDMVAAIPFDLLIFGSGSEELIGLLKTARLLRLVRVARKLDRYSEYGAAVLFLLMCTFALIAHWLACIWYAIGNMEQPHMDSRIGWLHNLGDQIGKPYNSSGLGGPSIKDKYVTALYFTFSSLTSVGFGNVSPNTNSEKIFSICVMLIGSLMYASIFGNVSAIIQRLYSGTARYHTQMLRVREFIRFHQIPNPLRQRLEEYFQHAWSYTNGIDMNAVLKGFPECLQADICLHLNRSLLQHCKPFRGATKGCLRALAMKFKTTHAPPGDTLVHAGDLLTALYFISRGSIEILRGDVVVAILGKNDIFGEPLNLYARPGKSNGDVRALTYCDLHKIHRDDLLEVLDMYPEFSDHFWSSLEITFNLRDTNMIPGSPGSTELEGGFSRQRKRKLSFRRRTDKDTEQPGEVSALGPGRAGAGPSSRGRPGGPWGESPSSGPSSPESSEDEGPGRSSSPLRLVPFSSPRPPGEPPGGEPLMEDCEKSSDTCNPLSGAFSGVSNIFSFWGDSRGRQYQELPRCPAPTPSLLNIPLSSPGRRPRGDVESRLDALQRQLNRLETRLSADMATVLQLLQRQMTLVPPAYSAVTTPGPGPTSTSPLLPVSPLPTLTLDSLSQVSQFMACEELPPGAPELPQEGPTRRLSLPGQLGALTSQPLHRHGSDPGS

First: O=C(Nc1ccccc1)Nc1cccc(Cl)c1Cl
Second: O=C(Nc1ccccc1Cl)c1cnccn1
The “hERG current change (%, negative = inhibition) at 10uM” value of the first is lower: 2.86% for the first, 2.9% for the second.

Compared with `COC(c1ccccc1)c1nnc(CCC(=O)NCCCc2ccccc2)o1` (stereo not shown), `Cn1c(SCC(=O)Nc2ccccc2Oc2ccccc2)nnc1C1CC1` is lower in “hERG current change (%, negative = inhibition) at 10uM” value: 9.44% for the first, -36% for the second.

Compared with `O=C1CCCC2=C1C(c1cccs1)n1nc(SCc3ccccc3F)nc1N2` (stereo not shown), `O=C1c2cccc(OCC(=O)N3N=C(c4cccs4)CC3c3ccc(F)cc3)c2CCN1Cc1ccccc1` (stereo not shown) is lower in “hERG current change (%, negative = inhibition) at 10uM” value: 3.74% for the first, -7.69% for the second.

Compared with `Cc1ccc(-c2cnc(SCC(=O)N3CCCc4ccccc43)n2C)cc1`, `CCC(=O)N1CCCN(S(=O)(=O)c2ccc(C)cc2)C1c1ccc(OC)cc1` (stereo not shown) is higher in “hERG current change (%, negative = inhibition) at 10uM” value: -50.8% for the first, -23.1% for the second.

First: O=C(Nc1cc(Cl)ccc1Oc1ccccc1)C1=COCCO1
Second: COc1ccc(Cl)cc1NC(=O)C1(c2cccs2)CCOCC1
The “hERG current change (%, negative = inhibition) at 10uM” value of the first is higher: 9.97% for the first, -17.8% for the second.

First: CCc1noc(C)c1C(=O)N1CCN(S(=O)(=O)c2ccc(Br)cc2)CC1
Second: CCOCCCNCC(=O)N1CCN(S(=O)(=O)c2ccc(C)cc2)CC1.O=C(O)C(=O)O
The “hERG current change (%, negative = inhibition) at 10uM” value of the first is lower: -30.2% for the first, -15.8% for the second.

Going from `CC(C)(O)C(=O)NN(C(=O)c1ccccc1)c1cccc(Br)c1` to `Cc1cccc(C(=O)N[C@H](C(=O)Nc2nc3ccccc3[nH]2)C(C)C)c1`, the “hERG current change (%, negative = inhibition) at 10uM” value falls from 10.4% to 3.32%.

Going from `Cl.Cn1nnnc1SCCNCc1ccc(Cl)cc1` to `CCCn1nnnc1NCc1ccccc1OCc1ccc(F)cc1`, the “hERG current change (%, negative = inhibition) at 10uM” value falls from -9.62% to -16%.

Going from `C=CCN(c1ccccc1)S(=O)(=O)c1c(C)[nH]c(=O)[nH]c1=O` to `CCn1cnc2c1c(=O)n(CC(=O)O)c(=O)n2Cc1ccccc1`, the “hERG current change (%, negative = inhibition) at 10uM” value rises from 2.84% to 28%.

First: Cc1c(NC(=O)COC(=O)c2ccc(F)c(S(=O)(=O)N3CCOCC3)c2)c(=O)n(-c2ccccc2)n1C
Second: COc1ccc(CN2CCN(C(=O)c3cc(C4CC4)nn3-c3ccccc3)CC2)cc1F
The “hERG current change (%, negative = inhibition) at 10uM” value of the first is higher: 9.22% for the first, -48.6% for the second.

First: COc1cccc(/C=C(/C#N)c2ccc(Cl)cc2)c1OCc1cccc(C(=O)O)c1
Second: O=C(OCc1ccccn1)c1ccc(COc2ccccc2Cl)o1
The “hERG current change (%, negative = inhibition) at 10uM” value of the first is higher: 26.1% for the first, 10.1% for the second.

First: Cc1cccn2c(=O)c3cc(C#N)c(=NC(=O)c4cccnc4)n(CC4CCCO4)c3nc12 (stereo not shown)
Second: CC(=O)N1CCc2c(sc3c2c(=O)n(Cc2ccccc2)c(=O)n3CC(=O)NCC2CCCO2)C1 (stereo not shown)
The “hERG current change (%, negative = inhibition) at 10uM” value of the first is lower: -51.1% for the first, -21.6% for the second.

First: O=C(c1ccccc1F)c1cc2c(cc1[N+](=O)[O-])OCCO2
Second: CN(CC(=O)NCc1ccccc1F)S(=O)(=O)c1ccc(Cl)cc1
The “hERG current change (%, negative = inhibition) at 10uM” value of the first is lower: -12.5% for the first, -4.4% for the second.

Compared with `Cc1[nH]nc2c1C(c1cn[nH]c1-c1ccc(F)cc1)C(C#N)=C(N)O2` (stereo not shown), `COc1ccc(-c2nc3c(-c4ccc(F)cc4)cnn3cc2C)cc1F` is lower in “hERG current change (%, negative = inhibition) at 10uM” value: 13.4% for the first, 9.86% for the second.

Going from `COc1ccccc1NC(=O)CSc1nnc(Cn2nnc(-c3ccccc3)n2)n1-c1ccccc1` to `O=C(CSc1nnc(-c2ccccn2)n1Cc1ccccc1)NC1CCCC1`, the “hERG current change (%, negative = inhibition) at 10uM” value falls from -5.02% to -9.99%.

First: CC(C)NC(=O)COC(=O)/C=C/c1ccc(F)cc1
Second: O=C(Nc1ccccc1)/C(=C\c1ccc(F)cc1)NC(=O)c1ccco1
The “hERG current change (%, negative = inhibition) at 10uM” value of the first is lower: -1.62% for the first, 3.87% for the second.

First: Cc1nnsc1C(=O)N1CCCC(C(=O)c2ccc(C(F)(F)F)cc2)C1 (stereo not shown)
Second: COc1ccc(C(=O)N2CCCC(Nc3ccc(C)c(C)c3)C2)cc1F (stereo not shown)
The “hERG current change (%, negative = inhibition) at 10uM” value of the first is lower: -39% for the first, 0.0102% for the second.

Going from `CCOC(=O)c1c(C)[nH]c(C(=O)OCC(=O)Nc2ccc(Cl)cn2)c1C` to `Cc1cc(C(=O)c2ccc(Cl)cc2)c(NC(=O)CCl)s1`, the “hERG current change (%, negative = inhibition) at 10uM” value falls from 6.52% to 1.38%.

First: O=C(COc1ccc(Cl)cc1Cl)NCCSc1ccc(Cl)cc1
Second: S=C(NCCc1ccccn1)Nc1cc(Cl)cc(Cl)c1
The “hERG current change (%, negative = inhibition) at 10uM” value of the first is higher: 10.6% for the first, 3.89% for the second.

Going from `CCCN(CCC)CCOc1cc(C)ccc1C(C)C.O=C(O)C(=O)O` to `COC(=O)c1ccccc1OCCCCN1CC(C)OC(C)C1.O=C(O)C(=O)O` (stereo not shown), the “hERG current change (%, negative = inhibition) at 10uM” value rises from -44.2% to -7.3%.

First: CCCCC(CC)CNC(=O)C1CC=CCC1C(=O)O (stereo not shown)
Second: CCOC(=O)C(C)Oc1cccc2c(=O)n(CC(=O)NCc3ccco3)ccc12 (stereo not shown)
The “hERG current change (%, negative = inhibition) at 10uM” value of the first is higher: 6.87% for the first, -10.2% for the second.

Going from `Cc1ccc(C2c3c(oc4ccccc4c3=O)C(=O)N2c2nncs2)cc1` (stereo not shown) to `COc1ccccc1-c1oc2ccccc2c1-c1ccc2c(c1)OCO2`, the “hERG current change (%, negative = inhibition) at 10uM” value rises from -1.24% to 16.7%.

Compared with `CC(C)(C)c1ccc(C(=O)Nc2ccc(NC(=O)C(=O)O)cc2)o1`, `CC(=O)Nc1ccc(N/C=C(\C=O)c2nc3ccccc3o2)cc1` is lower in “hERG current change (%, negative = inhibition) at 10uM” value: 24% for the first, 22.8% for the second.

First: CN(C)S(=O)(=O)c1ccc(C(=O)N2CCN=C2SCc2cccnc2)cc1
Second: Cc1ccc(NC(=O)Nc2cc(S(=O)(=O)N(C)C)ccc2C)cc1
The “hERG current change (%, negative = inhibition) at 10uM” value of the first is higher: 6.56% for the first, 0.631% for the second.

Compared with `COc1cc(/C=N/N=C2/NC(=O)C(c3ccccc3)S2)ccc1O` (stereo not shown), `O=C(O)CC1S/C(=N/N=C/C=C/c2ccccc2)NC1=O` (stereo not shown) is higher in “hERG current change (%, negative = inhibition) at 10uM” value: -8.74% for the first, 0.632% for the second.

First: COc1ccc(OC)c(N2C(=O)CC(=O)NC2=O)c1
Second: COc1ccccc1N1CCN(C(=O)c2cc(C)oc2C)CC1
The “hERG current change (%, negative = inhibition) at 10uM” value of the first is lower: 5.93% for the first, 21% for the second.

First: COc1ccc(NS(=O)(=O)c2cc(NC(=O)C3CCCO3)ccc2N2CCCC2)cc1 (stereo not shown)
Second: CCOc1ccccc1NC(=O)C1CCCN(S(=O)(=O)c2cccc3nsnc23)C1 (stereo not shown)
The “hERG current change (%, negative = inhibition) at 10uM” value of the first is lower: 4.03% for the first, 6.28% for the second.

Going from `Cc1ccccc1-c1nn[nH]n1` to `Nc1cnnc(N/N=C\c2ccccc2)c1Cl`, the “hERG current change (%, negative = inhibition) at 10uM” value falls from 3.91% to -8.3%.

First: CC1CCN(S(=O)(=O)N2CCC(C(=O)NC3CCCC3)CC2)CC1
Second: O=C(c1ccc(COc2ccccc2Br)o1)N1CCCCCC1
The “hERG current change (%, negative = inhibition) at 10uM” value of the first is higher: 15.1% for the first, -14.5% for the second.

First: CC1=C(C(=O)Nc2ccccc2C)C(c2ccc(C)o2)N2C(=O)CSC2=N1 (stereo not shown)
Second: Cc1ccc2c(c1C)OC(=O)CC2c1ccccc1 (stereo not shown)
The “hERG current change (%, negative = inhibition) at 10uM” value of the first is lower: -13% for the first, 1.64% for the second.

First: COc1ccc(CCC(=O)OCC(=O)c2cccc(OC)c2)cc1
Second: COc1ccc2c(COC(=O)CCS(=O)(=O)c3ccc(C)cc3)cc(=O)oc2c1
The “hERG current change (%, negative = inhibition) at 10uM” value of the first is higher: 6.94% for the first, -14.1% for the second.

Going from `Cc1[nH]c2ccc(C(=O)OC(C)C(=O)NC3(C#N)CCCCC3)cc2c1C` (stereo not shown) to `O=C(Cc1ccc(Cl)cc1Cl)OCC(=O)N1CCCCC1`, the “hERG current change (%, negative = inhibition) at 10uM” value rises from -0.981% to 17%.

First: Cc1ccc(NC(=O)c2c(C(F)(F)F)nn(C)c2Cl)cc1C
Second: Cc1cccc(N2CCN(c3nnc(C(F)(F)F)s3)CC2)c1
The “hERG current change (%, negative = inhibition) at 10uM” value of the first is lower: 10.8% for the first, 11.2% for the second.

Compared with `O=C(O)c1ccc2c(=O)n3c(nc2c1)/C(=C/c1ccc(OC(F)F)cc1OC(F)F)CC3`, `Cc1c(CCC(=O)N2CCC(C(=O)O)(c3ccccc3)CC2)c(=O)oc2cc3oc4c(c3cc12)CCCC4` is lower in “hERG current change (%, negative = inhibition) at 10uM” value: 6.46% for the first, 0.494% for the second.

First: CCc1ccc(NC(=O)CSc2nc3ccsc3c(=O)n2CCCCCC(=O)O)cc1
Second: O=C(Cc1ccc([N+](=O)[O-])cc1)Nc1nccs1
The “hERG current change (%, negative = inhibition) at 10uM” value of the first is higher: 37.1% for the first, 0.126% for the second.

Going from `COc1cc(Cl)c(S(=O)(=O)NCc2cccnc2)cc1Cl` to `O=C(O)CSc1nccn1-c1cccc(Cl)c1`, the “hERG current change (%, negative = inhibition) at 10uM” value rises from 2.8% to 11.1%.

Going from `CCOC(=O)C1=C(C)NC(=S)N(C(C)=O)C1c1ccccc1` (stereo not shown) to `CCN(CC)CCn1c(=S)[nH]c2cc(C(=O)NCc3ccccc3Cl)ccc2c1=O`, the “hERG current change (%, negative = inhibition) at 10uM” value falls from -14.8% to -76.1%.

First: CCCCC(=O)N/N=C/c1ccc(-c2ccc([N+](=O)[O-])cc2)o1
Second: CCCCNC(=O)c1cccc2c(=O)c(C)c(-c3ccccc3)oc12
The “hERG current change (%, negative = inhibition) at 10uM” value of the first is higher: -21.9% for the first, -23.7% for the second.

First: CCC(Nc1nc(-c2ccccc2)nc2ccccc12)C(=O)O.Cl (stereo not shown)
Second: C/C(=N\NC(=O)c1nnn(-c2nonc2N)c1C)c1ccc(-c2ccccc2)cc1
The “hERG current change (%, negative = inhibition) at 10uM” value of the first is lower: -3.71% for the first, 19% for the second.

Going from `CC1=CN2C(=N)/C(=C/c3ccco3)C(=O)N=C2S1` to `CC(C)Cc1nn2c(N)c(/C=C3\C=Nc4ccccc43)c(=O)nc2s1`, the “hERG current change (%, negative = inhibition) at 10uM” value falls from 29.4% to 15.8%.

First: CCc1cc(-c2n[nH]c(=S)n2N)n(C)n1
Second: Cc1nc(C)c(-c2csc(N)n2)s1
The “hERG current change (%, negative = inhibition) at 10uM” value of the first is higher: 2.67% for the first, -3.5% for the second.

First: CCN(CCO)C(=O)CC1C(=O)NCCN1Cc1c(F)cccc1Cl (stereo not shown)
Second: O=C(CN1CCN(C(=O)CNC(=O)c2ccc(N3CCCC3=O)cc2)CC1)Nc1ccccc1Cl
The “hERG current change (%, negative = inhibition) at 10uM” value of the first is higher: 25.8% for the first, -0.992% for the second.

First: CC(C)(C)c1ccc(-n2ncc3c2CCCC3NC(=O)CN2CCOC2=O)cc1 (stereo not shown)
Second: CC(C(=O)Nc1cccc([N+](=O)[O-])c1)N1CCN(C/C=C/c2ccccc2)CC1 (stereo not shown)
The “hERG current change (%, negative = inhibition) at 10uM” value of the first is higher: 0.93% for the first, -75.6% for the second.

Going from `O=C([O-])c1cc(=O)[nH]c2ccc(S(=O)(=O)Nc3ccc(F)cc3)cc12.[K+]` to `CSCc1cc(N2CCOCC2)nc(SCc2ccc(Cl)cc2Cl)n1`, the “hERG current change (%, negative = inhibition) at 10uM” value falls from 23.5% to 2.63%.
